The results in this text go back to PubChem BioAssay (NCI).

The structures appear in SMILES notation. More than one record can exist for a structure, and the calls need not agree.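 Cells were grown in 96-well plates and exposed to the test compound at a single concentration for 48 hours; results are reported as percent growth, with values below 10 considered active.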 The source holds more than one record for some entries. The other results are left out here. There may be further records. This drug was run again and again over the years, at the concentration stated with the values; each value is one run. Signs of the kind (2×) stand for listed records that agree.

One test concerns NCI-H522 lung. The test is described as follows: NCI-60 one-dose screen, 48 h (100 = growth as untreated, 0 = no growth, -100 = all killed). The following applies: 25 µM.
The next test has as its system A549/ATCC NSCLC. The description is as above. The following applies: 0.25 µM.

With `COc1cccc2c1C(=O)c1c(O)c3c(c(O)c1C2=O)C[C@@](O)(C(=O)CO)C[C@@H]3OC1CC(N)C(O)C(C)O1` (stereo not given in full), the growth entry with NCI-H522 lung (runs of 1992) is “active: -93.6 (3×), -78.8, -89.6, -82.3, -65.3, -97.7, -80.7, -91.2 (3×), -98.7, -73.7, -87.8 (2×), -95.2 (2×), -99.1, -83.6 (2×), -96.5, -90.2 (2×), -99.5, -98.9, -86.3, -96.8 (2×), -88.1, -97, -91.4, -70.2, -77.4, -94.1 (2×), -75.6, -88.9, -94.4, -92.5, -95.9, -97.9, -98, -86.4, -100 (5×), -83.4, -93.7, -78.3, -79, -96.4, -84.6, -87.1, -92.2, -86.9, -74.2, -90.1, -93.8, -89.1 (2×), -87.6, -74.7, -85.6, -79.8, -96.3, -97.5, -98.6, -93.1, -79.7, -90.9, -53.2, -88.8, -81.7, -89.4, -87.9, -62.1, -77.9, -94.6 (2×), -90.5, -98.1, -93.4, -94.9, -92.9 (2×), -88, -72.4, -69.7, -73, -94.8, -95, -93.2 (2×), -96.6, -96.2, -99.6, -62.6, -94.7, -94.2, -99.9, -98.2, -81.1, -95.5, -98.8, -45.4, -62.7, -55.9, -84.2, -50.4, -91.5, -97.1, -21.9, -49.4, -95.3%”; in the test on NCI-H522 lung (runs of 1993), “active: -92.7 (2×), -52.4, -62.5, -56.1, -99.6, -79.2, -60.8, -85.9, -71.6, -70.6, -77.6, -51, -59.6, -64.6, -53.1, -95.1, -61.3, -85.3, -76.4, -63.8, -79.4, -56, -72.2, -84.3, -58.2, -55.9, -84.8, -37, -99.4, -68.3, -71.8, -99.8, -68, -90.9, -59.9, -74.9, -92.1, -42.2, -96.8, -32.3, -91.7%”; in the test on NCI-H522 lung (runs of 1994), “active: -57, -56.4, -49, -29.3, -86.3, -75.2, -39.9, -92.7, -80, -27.5, -95.8, -34.1, -53.5, -80.2, -47.5, -86.2, -100 (2×), -85.2, -61.7, -73.9, -98.1, -56.5, -31.8, -97.3, -61, -72, -94.6, -69.7, -65.4%”; with NCI-H522 lung (runs of 1995), “active: -56.8, -70.9, -80.3, -77.7, -68.6, -71.7, -74.3, -72.8, -74.5, -80 (3×), -52.8, -55.7, -63.1, -53, -90.9, -45.7, -72 (2×), -73.9, -87.5, -73.2, -89.8, -100 (2×), -38.4, -68.1, -77.6, -66.9, -76.7, -68.3, -68.5, -59, -40.2, -97.1, -25.7, -48.7%”; with NCI-H522 lung (runs of 1996), “active: -60.8 (2×), -75.4, -83.8, -32.7, -51, -92.5, -48.4, -70.2, -78.6, -59.8, -46.4, -94.3, -68.2, -35.9, -52.3, -96.1, -99.5, -31.3, -41.6, -67.9, -69, -84.4, -78.2, -23.7, -70.5, -75.9, -77, -93.9, -81.4, -53.9, -80.1, -93.6, -87.8, -90.5, -73.2, -64.2, -53.3, -42.9, -60, -48.5, -85.5, -65.3, -37.5, -66.9, -93.7, -93, -52.5, -70.3, -79.6% and inactive: 12.4%”; in the test with NCI-H522 lung (runs of 1997) it was “active: -32.2, -39.2, -19.8, -74, -88.3, -57.9, -74.9, -92.6, -80.9, -54.7, -91.7, -59.3, -27.2, -74.1, -77.7, -75.4, -80.7, -96.4, -73.5, -44.6, -86.2, -73.2, -51.6, -52.3, -87.8, -98.3, -80, -88.5, -70.6, -76.1, -80.5, -94.4, -74.8, -78.6, -68%”. Moreover, the growth result in the test with NCI-H522 lung (runs of 1998) was “active: -56.7, -79.1, -83, -39.1, 3.38, -74.6, -98.3, -10.5, -84.4, -23.2, -49.7, -47.3, -96.6, -90.4, -35.7, -33.6, -90.1, -93.8, -48.7, -52.2, -69.2, -90.7, -66.4, -34.6%”; in the test with NCI-H522 lung (runs of 1999) it was “active: -100 (2×), -91, -73.2, -96.1, -65, -80.6, -66.8, -65.5, -25.9, -65.8, -4.71, -94.8, -66, -24.4%”; in the test with NCI-H522 lung (runs of 2000), “active: -100%, -14.8%, -67.7%”; in the test with A549/ATCC NSCLC (runs of 2006) it was “inactive: 33.6% and active: -1.33%”; with A549/ATCC NSCLC (runs of 2007), “inactive: 37.8, 49.1 (2×), 32.6, 44.6, 42.3, 35.9, 45.4, 40.1 (2×), 46.8, 44, 43.3 (2×), 44.5, 33.5 (2×), 41.6, 40.6, 37.7, 46.9, 42.8, 53.9, 52.7, 51.1, 47.6, 36.3 (2×), 48, 30.5, 38.1, 49.6, 42.7, 45.7, 60.9%”; in the test on A549/ATCC NSCLC (runs of 2008), “inactive: 40 (2×), 49.6, 33.6, 34.8, 47, 41.8, 50.1, 45.7, 40.1, 40.4, 50.3, 44, 57, 28, 36.3, 49.9, 50.7, 43.5 (2×), 26.2, 23.1, 37.6, 11.7, 39.9, 86.9, 38.6 (2×), 44.4, 32.3, 38.3, 44.2, 37, 32.9, 37.3, 36.9, 43.1, 37.7, 29.5, 42.6, 45.1, 50.4, 47.2, 44.6, 36.2, 46.2, 48, 42.2, 18, 30.2% and active: 9.14%”. Further, the growth result with A549/ATCC NSCLC (runs of 2009) was “inactive: 52, 50.1, 45.6, 36.8, 36.3, 50.3, 57.5, 60.3, 49.5, 49.9, 45, 53.6, 50.4, 43.3, 46.7, 42.4, 46.2 (2×), 45.9 (2×), 42.8, 32.5, 35.6, 34.4, 38.7, 37.4, 42.5, 21, 42.6 (2×), 37.8, 36.2, 40.2 (2×), 51, 44.6, 22.4, 40.1, 32.7, 38.8, 38.1 (2×), 37 (3×), 42.3, 34.8, 34.3, 31.2, 40.8, 37.5, 27.3, 32.6, 30, 21.4, 33.3, 50, 43.1, 45.7, 28.8, 44.4, 40.4%”; in the test with A549/ATCC NSCLC (runs of 2010), “inactive: 37.7, 43.1, 36.6, 36.4, 44.3, 42.4, 44.5, 40.8 (2×), 45.6, 40.6 (2×), 40, 37.2 (3×), 34.6, 36.5 (2×), 33.8, 39.9, 37.6, 40.2, 41.6 (2×), 36.3, 28, 36.8, 42.7, 37.8, 45, 39.8, 41.7, 40.3, 11.6, 37.4, 38.6, 41.4, 35.4, 38.7, 35.6, 32.1, 40.7, 37.1%”; with A549/ATCC NSCLC (runs of 2011) it was “inactive: 36.4 (2×), 33.3, 35.8, 40, 33, 22.2, 37.9, 33.6, 24.7, 36.2 (2×), 37.7, 37.5, 35.3 (2×), 38.6 (2×), 40.8, 40.4 (2×), 38.9, 39.3, 28.3, 41.3, 39.2, 33.7, 38.3, 42.3 (2×), 37.3, 34.2, 33.8, 33.2, 39.9, 31, 32.7, 28.2, 35.9 (2×), 33.1 (2×), 31.1, 31.2, 32.2, 29.7, 35.6 (2×), 36.8, 32.9, 37, 34.3, 34.4%”.
